15 compounds from ChEMBL document CHEMBL5042521, “A Structure-based Design Approach for Generating High Affinity BRD4 D1-Selective Chemical Probes” (J Med Chem, 2022) can be followed below.

The target in assay [1] is T1, Bromodomain-containing protein 4 (Homo sapiens, UniProt O60885).
Assay [2] addresses Bromodomain-containing protein 3 (Homo sapiens, UniProt Q15059).
The target of assay [3] is Bromodomain-containing protein 2 (Homo sapiens, UniProt P25440).
Assay [4] addresses T1, Bromodomain-containing protein 4. This is another data set of the same source.

Sequence of Bromodomain-containing protein 3 (Q15059 whole entry): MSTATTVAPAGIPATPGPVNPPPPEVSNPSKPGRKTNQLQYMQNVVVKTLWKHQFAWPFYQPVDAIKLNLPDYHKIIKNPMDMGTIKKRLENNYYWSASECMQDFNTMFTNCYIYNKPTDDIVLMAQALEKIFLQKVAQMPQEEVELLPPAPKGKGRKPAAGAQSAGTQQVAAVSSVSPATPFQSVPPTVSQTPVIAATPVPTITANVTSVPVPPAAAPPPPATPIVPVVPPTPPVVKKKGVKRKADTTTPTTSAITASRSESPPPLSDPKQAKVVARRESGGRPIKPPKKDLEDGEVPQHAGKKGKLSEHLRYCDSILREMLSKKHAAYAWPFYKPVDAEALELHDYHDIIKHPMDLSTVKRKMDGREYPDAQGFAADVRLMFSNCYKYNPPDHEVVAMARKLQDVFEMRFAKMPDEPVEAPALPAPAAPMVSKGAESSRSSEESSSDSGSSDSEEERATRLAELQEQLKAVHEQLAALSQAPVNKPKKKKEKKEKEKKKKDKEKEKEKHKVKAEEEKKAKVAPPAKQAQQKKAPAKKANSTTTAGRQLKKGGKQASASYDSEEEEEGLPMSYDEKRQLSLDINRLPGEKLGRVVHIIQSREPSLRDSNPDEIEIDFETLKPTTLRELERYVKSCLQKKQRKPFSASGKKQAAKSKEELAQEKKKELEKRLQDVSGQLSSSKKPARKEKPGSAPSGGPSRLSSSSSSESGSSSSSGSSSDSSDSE
Sequence of Bromodomain-containing protein 2 (P25440 whole entry): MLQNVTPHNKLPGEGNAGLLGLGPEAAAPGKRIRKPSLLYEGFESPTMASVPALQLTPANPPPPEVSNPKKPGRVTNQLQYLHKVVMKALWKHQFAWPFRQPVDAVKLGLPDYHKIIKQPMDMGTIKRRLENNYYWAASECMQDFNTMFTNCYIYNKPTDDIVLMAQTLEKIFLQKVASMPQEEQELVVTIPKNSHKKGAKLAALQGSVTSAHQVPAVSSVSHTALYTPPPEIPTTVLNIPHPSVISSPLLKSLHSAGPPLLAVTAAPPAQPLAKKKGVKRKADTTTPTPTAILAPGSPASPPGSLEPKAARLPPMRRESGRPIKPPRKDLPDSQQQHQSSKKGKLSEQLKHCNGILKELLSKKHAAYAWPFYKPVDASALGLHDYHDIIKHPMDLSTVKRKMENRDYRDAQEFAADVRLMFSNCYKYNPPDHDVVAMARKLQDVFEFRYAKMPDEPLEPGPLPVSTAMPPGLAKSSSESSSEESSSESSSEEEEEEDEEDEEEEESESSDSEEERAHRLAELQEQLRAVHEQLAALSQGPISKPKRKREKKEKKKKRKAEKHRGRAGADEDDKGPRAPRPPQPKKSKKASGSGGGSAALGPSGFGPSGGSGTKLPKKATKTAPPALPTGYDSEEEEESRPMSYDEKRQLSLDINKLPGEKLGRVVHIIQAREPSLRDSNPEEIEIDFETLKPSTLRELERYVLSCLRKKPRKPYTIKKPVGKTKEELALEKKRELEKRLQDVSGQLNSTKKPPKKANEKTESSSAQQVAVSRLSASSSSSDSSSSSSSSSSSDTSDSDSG

In the case of `CCc1cc(C)cc(Oc2nccc(-c3c(-c4ccc(C(F)(F)F)cc4)ncn3[C@H]3CCNC3)n2)c1`, the IC50 (as a rule, the midpoint of a concentration-inhibition curve) in assay [1] amounted to 1100 nM.

In the case of `Ic1ccc(-c2ncn(C3CCNCC3)c2-c2ccnc(Oc3ccc4c(c3)OCO4)n2)cc1`, the IC50 in assay [1] came to 2700 nM.

In turn, `Cc1cccc(Oc2nccc(-c3c(-c4ccc(I)cc4)ncn3C3CCNCC3)n2)c1` registered an IC50 in assay [1] of 500 nM.

With `Cc1ccc(C(C)C)cc1Oc1nccc(-c2c(-c3ccc(C(F)(F)F)cc3)ncn2[C@H]2CCN(CCN(C)C)C2)n1`, the IC50 in assay [2] and in assay [3] was under 50000 nM throughout.

For `Cc1cc(C)cc(Oc2nccc(-c3c(-c4ccc(I)cc4)ncn3[C@@H]3CCN(CCN)C3)n2)c1`, the IC50 in assay [1] came out at 260 nM.

For `CCc1cc(C)cc(Oc2nccc(-c3c(-c4ccc(C(F)(F)F)cc4)ncn3C3CCNCC3)n2)c1`, the IC50 in assay [1] amounted to 360 nM.

Compound `Cc1cc(C)cc(Oc2nccc(-c3c(-c4ccc(I)cc4)ncn3[C@H]3CCN(CCN)C3)n2)c1` returned a half-inhibitory concentration (IC50) in assay [1] of 100 nM.

In assay [1], `Cc1ccc(C)c(Oc2nccc(-c3c(-c4ccc(I)cc4)ncn3C3CCNCC3)n2)c1` returned an IC50 of 270 nM.

Take `Cc1ccc(C(C)C)cc1Oc1nccc(-c2c(-c3ccc(C(F)(F)F)cc3)ncn2C2CCN(CCN(C)C)CC2)n1`: the IC50 is under 92 nM in assay [1], under 50000 nM in assay [2], under 50000 nM in assay [3] and under 50000 nM in assay [4].

For the compound `Cc1cc(C)cc(Oc2nccc(-c3c(-c4ccc(I)cc4)ncn3[C@@H]3CCNC3)n2)c1`, in assay [1], the IC50 came to 1900 nM.

For `Cc1ccc(C(C)C)cc1Oc1nccc(-c2c(-c3ccc(C(F)(F)F)cc3)ncn2[C@@H]2CCNC2)n1`, the IC50 in assay [1] was determined as 3800 nM.

As for `CCc1cc(C)cc(Oc2nccc(-c3c(-c4ccc(C(F)(F)F)cc4)ncn3[C@H]3CCN(CCN(C)C)C3)n2)c1`, in assay [1], the IC50 was found to be 110 nM.

In assay [1], `Clc1cc(Cl)cc(Oc2nccc(-c3c(-c4ccc(I)cc4)ncn3C3CCNCC3)n2)c1` yielded an IC50 of 430 nM.

For `Cc1ccc(C(C)C)cc1Oc1nccc(-c2c(-c3ccc(C(F)(F)F)cc3)ncn2[C@H]2CCNC2)n1`, 880 nM corresponded to half-maximal inhibition in assay [1] (IC50).

Take `Cc1cc(C)cc(Oc2nccc(-c3c(-c4ccc(I)cc4)ncn3[C@H]3CCNC3)n2)c1`: the midpoint of inhibition in assay [1], the IC50, lay at 1100 nM.
